Structures are written as SMILES. Hit rate of the full screen: of about 50,000 compounds, about 800 (1.6%) showed an effect of 50% or more. The list shows a part of the results.

The assay deals with Bcl-2-like protein 10 (Homo sapiens) (UniProt Q9HD36). As to the kind of experiment: Phenotype converters, Bcl-B/TR3 peptide binding displacement, primary biochemical FP (AID 1240).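 Further: 0% = Bcl-B with tracer peptide and DMSO and 100% = tracer peptide lacking Bcl-B.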 As to conditions: GST-Bcl-B / FITC-TR3 peptide fluorescence polarization; stronger effect = higher value; compound at 3.75 mg/L. (Polarisation of emitted light reports the rotation of a fluorescent probe.)
UniProt Q9HD36, sequence (Q9HD36 whole entry, looked up): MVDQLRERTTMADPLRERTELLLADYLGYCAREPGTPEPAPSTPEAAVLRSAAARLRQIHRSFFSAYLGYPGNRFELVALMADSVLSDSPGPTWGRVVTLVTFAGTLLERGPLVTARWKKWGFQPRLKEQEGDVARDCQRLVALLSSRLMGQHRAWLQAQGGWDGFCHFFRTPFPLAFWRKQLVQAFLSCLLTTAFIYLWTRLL
In the case of `O=C(CCCN1C(=O)c2cccc3cccc(c23)C1=O)OCc1ccc2c(c1)OCO2`, the displacement is 3.3%.
For `CCOC(=O)c1sc(NN=C(C#N)C#N)c(C(=O)OCC)c1C` the value was 35.5%; for `NC(N)=NS(=O)(=O)c1ccc(NS(=O)(=O)c2ccc3ccccc3c2)cc1`, 4.3%.
Consider `CNCCOc1nc(-c2ccccc2)cc(-c2ccccc2)n1`, for which the displacement was -7.8%.
In the case of `O=C(/C=C/c1ccc(Cl)cc1)Nc1ccc(N2CCCCC2)cc1`, the displacement was -0.4%.
On to `C=CCn1c(SCC(=O)c2ccccc2)nc(O)cc1=O`, for which the displacement is -6%.
On to `C=C1CCc2c([nH]c3ccc(OCC(C)C)cc23)C1=O`, for which the displacement was 6.5%.
For `CC(=O)Nc1cc(-c2nc3cc(C)c(C)cc3o2)ccc1Cl` the value was -19%; for `COc1ccc(Cl)cc1NC1=C(Cl)C(=O)N(c2ccc(Br)cc2)C1=O`, -3.8%; for `CC1=NN(C(=O)c2cccnc2)C(C)(O)C1(C)C` (stereo not given), 11.6%.
For `O=C(O)/C=C\C(=O)OCCCC(F)(F)C(F)(F)F` the value was 9.5%.
Regarding `CC1=CC(c2ccccc2)=Nc2ccc(C)cc2N1`, the displacement is 4.4%.
In the case of `CCOC(=O)c1c(C)oc2cc(Br)c(OCc3ccc([N+](=O)[O-])cc3)cc12`, the displacement stood at 8.5%.
In the case of `Cc1ccc(NC(=O)CC(=O)NN)cc1`, the displacement turned out to be 1.4%.
For `O=C(N/N=C/c1ccccc1O)c1cc(=O)[nH]c2ccccc12` the value was -24.1%; for `COC(=O)c1ccc(C(=O)OC)c(NC(=O)/C=C/c2ccc(Cl)cc2)c1`, -6.4%.
For `O=[N+]([O-])c1ccc(Cl)cc1Sc1nc2ccccc2[nH]1` the value was 8.9%; for `CC1=NN(c2ccc(Cl)c(Cl)c2)C(=O)/C1=C/c1ccco1`, 11.4%; for `Cc1cc(-c2ccc(N=Cc3ccc([N+](=O)[O-])s3)c(C)c2)ccc1N=Cc1ccc([N+](=O)[O-])s1`, -3.5%.
As to `COc1ccc2c(c1OC)C(=O)N1c3ccccc3N=C(c3ccc(Cl)cc3)CC21` (stereo not given), the displacement was -1.3%.
Consider `O=C(NCCCN1CCOCC1)c1cc(Cl)ccc1Cl`, for which the displacement was -5.4%.
For `O=[N+]([O-])c1cncc([N+](=O)[O-])c1Nc1ccc(Cl)cn1` the value was 2.1%; for `O=S(=O)(c1ccc2c(c1)Cc1cc(S(=O)(=O)N3CCOCC3)ccc1-2)N1CCOCC1`, 1.4%.
For `Cc1cc(OCC(=O)Nc2ccccc2C(C)C)ccc1Cl` the value was -6.2%.
As to `CCCCNC(=O)/C(=C/c1ccc(C)o1)NC(=O)c1ccccc1`, the displacement came out at 13.1%.
Consider `O=C(Nc1ccc2c(c1)OCO2)c1cnn2c1NC(c1ccco1)CC2C(F)(F)F` (stereo not given), for which the displacement came to 1.2%.
The value for `CCOc1cc(/C=C2\C=C(c3ccc(Br)cc3)OC2=O)ccc1OC(C)=O` was 12.6%.
Take `Cn1c(-c2cccs2)nc2c3ccccc3c3ccccc3c21`: the displacement is 11.7%.
The value for `CN(/N=C/c1ccc([N+](=O)[O-])cc1)C(=S)c1ccccc1` was -4.9%.
Consider `CCC(CC)=NNC(=O)C(=O)Nc1ccc(F)cc1`, for which the displacement is 9.1%.
For `CC(C)(C)NCCOCCOc1cccc(Cl)c1Cl` the value was -2%; for `CCOc1ccc(NC(=O)COc2ccccc2)cc1`, 3.2%.
In the case of `CC(C)=NNc1nc2ccccc2s1`, the displacement turned out to be 13.3%.
The value for `CC(C)(C)c1nnc(NC(=O)c2cccc([N+](=O)[O-])c2)s1` was 9.6%; that for `COc1cc(C=C2C(=O)N(C)C(=O)N(C)C2=O)cc(Br)c1OCc1ccccc1` was 13.9%.
Regarding `CCN(CC)CCCNC(=S)Nc1cccc(Cl)c1`, the displacement is -2.4%.
For `CC1C(C(=O)N(C=O)c2cccc(Cl)c2)C2C=CC1C21CC1` (stereo not given) the value was -14.2%; for `FC(F)(F)c1ccccc1CN1CCN(Cc2ccco2)CC1`, -5.9%; for `CCOc1cc(/C=C2\C(=O)NC(=O)N(c3ccc(Cl)cc3)C2=O)cc(Cl)c1OCC(=O)O`, -2.8%.
Consider `N#C/C(=C/c1cccc(C(F)(F)F)c1)C(=O)Nc1cccc(Br)c1`, for which the displacement is -9.1%.
The value for `Cc1onc(-c2c(Cl)cccc2Cl)c1C(=O)N1CCC(Cc2ccccc2)CC1` was 6.9%; that for `COC(=O)c1ccccc1NC(=O)c1cc2ccccc2o1` was -1.5%; that for `O=C1CC(c2ccc([N+](=O)[O-])cc2)=NN1` was 8.6%.
Consider `COc1cc(C(=O)Nc2nc3c(C)cccc3s2)cc(OC)c1OC`, for which the displacement was -1.5%.
The value for `Cc1cc(C)n(CC(=O)n2c3ccccc3c3ccccc32)n1` was 12.7%; that for `Cc1ccc(/C=N/N2CCN(Cc3ccc(Cl)cc3)CC2)o1` was -9.5%; that for `COc1ccc(C(=O)Nc2sc(Cc3ccccc3)c(C)c2C(N)=O)cc1` was -16.5%.
For `CCOC(=O)c1ccc(NC(=O)C(=O)NCc2ccc(OC)cc2)cc1` the value was -9%.
For `CC(=O)Nc1ccc(N2C(=O)C3C4CC(=O)C(c5ccccc54)C3C2=O)cc1` (stereo not given) the value was 14.3%; for `CCOP(C)(=O)C(c1ccccc1)N(C)S(C)(=O)=O` (stereo not given), -6.7%.
`O/N=C1/C2C3CC4C2/C(=N\O)C2C1C3C42` (stereo not given): the displacement is 1.7%.
In the case of `COC(=O)C1=C(O)/C(=C\c2ccccc2C(F)(F)F)N=C1C`, the displacement is 9.4%.
Regarding `CC(/C=C(/C#N)C(=O)Nc1ccc(Cl)cc1)=C\c1ccccc1`, the displacement was determined as 0.9%.
The value for `Cc1ccc(C2/C(=C(\O)c3ccccc3)C(=O)C(=O)N2CCN(C)C)cc1` (stereo not given) was -17.1%.
Take `COc1cc(C(=O)NC(NC(=S)Nc2ccc(Cl)cc2)C(Cl)(Cl)Cl)cc(OC)c1OC` (stereo not given): the displacement is -19.8%.
For `CC(C)CCNC(=O)C(=O)NCC1CCCO1` (stereo not given) the value was -0.6%; for `COC(=N)/C(C#N)=C/c1c(O)n(-c2c(Cl)cccc2Cl)c2ccccc12`, 5.4%; for `CC(C)C(C(=O)O)N1C(=O)/C(=C/c2ccc(O)cc2)SC1=S` (stereo not given), -37%.
The value for `NC(=O)c1ccc(NC(=O)c2ccccc2[N+](=O)[O-])cc1` was 9.6%; that for `COc1ccc(-c2nnc(-c3ccccc3)o2)cc1OC` was 8%; that for `CN(C)/C(=N/OC(=O)c1ccc([N+](=O)[O-])cc1)c1nonc1N` was 11.6%.
The value for `Cc1ccccc1OCC(=O)Nc1ccc(O)c(-c2nc3ccccc3o2)c1` was 13.8%.
In the case of `COc1cccc(OCCCOc2cccc3ccccc23)c1`, the displacement stood at 2.3%.
The value for `CC1=NN(C(=O)OC(C)(C)C)C(O)(c2ccc(Br)cc2)C1` (stereo not given) was -5.6%; that for `Cc1cc(C)c(C(=O)/C(=C/c2ccco2)c2ccccc2)c(=O)[nH]1` was 8.9%.
In the case of `COc1ccc(C(=O)N2CCN(Cc3cccc(F)c3)CC2)cc1`, the displacement is -6%.
The value for `CCOC(=O)c1c(C)nc2n(CCN3CCOCC3)c3ccccc3n12` was -5.8%; that for `CCOc1ccccc1N1C(=O)NC(=O)C(=Cc2ccc(OC)cc2)C1=O` was 13.2%.
For `COc1cccc(C2/C(=C(\O)c3ccc(Cl)cc3)C(=O)C(=O)N2CCCCCC(=O)O)c1` (stereo not given) the value was -4.6%; for `O=C(O)c1c[nH]c2cc3c(cc2c1=O)OCCO3`, -2.4%; for `COc1ccc(Cl)cc1N(CC(=O)NCC1CCCO1)S(=O)(=O)c1ccc(C)c([N+](=O)[O-])c1` (stereo not given), -13.3%.
With `COc1cc(/C=C2\N=C(c3ccccc3)OC2=O)cc(Br)c1OCc1c(C)no[n+]1[O-]`, the displacement is -1.1%.
The value for `COc1ccc(CC(=O)Nc2ccc(S(=O)(=O)Nc3nc(C)cc(C)n3)cc2)cc1` was -3.3%; that for `COCCCNC(=O)CN(c1cccc([N+](=O)[O-])c1)S(=O)(=O)c1ccccc1` was 11.1%; that for `CCOc1cccc(-c2cc(C(=O)Nc3ccc4c(c3)OCCO4)c3ccccc3n2)c1` was -1.1%.
The value for `CCOCCOC(=O)c1ccc(NC(=O)c2ccc(OC)c(OC)c2)cc1` was -5.1%; that for `COc1cc(NC(=O)c2ccc(Cl)cc2)c(Cl)cc1N` was -1.7%; that for `CS(=O)(=O)N(Cc1ccc(C(=O)NCCSc2ccccc2)cc1)c1ccccc1` was -9.3%.
For `CCOC(=O)C1CCN(C(=O)Nc2cccc(Cl)c2)CC1` the value was 13.5%; for `COc1ccc(NC(=O)c2cc(-c3ccc(OC)cc3OC)nc3ccccc23)c(OC)c1`, -0.8%; for `COc1ccc(Cl)cc1NC(=O)/C=C/c1cccc([N+](=O)[O-])c1`, 15.4%.
Turning to `CCCC1CCc2c(sc(NC(=O)Cc3ccccc3)c2C(N)=O)C1` (stereo not given), the displacement is 6.9%.
On to `COc1ccc(OC)c(S(=O)(=O)N2CCCCCC2)c1`, for which the displacement is -2.6%.
The value for `CCCc1cc(=O)n2[nH]c(-c3ccc(F)cc3)cc2n1` was 8.1%; that for `CC1=Nc2ccccc2/C1=C\c1c(O)n(-c2ccccc2)c(=O)[nH]c1=O` was -3.1%.
Take `CCOC(=O)c1c(NC(=O)COc2ccccc2C)sc(C(=O)Nc2ccc(C)cc2C)c1C`: the displacement came to 10%.
For `COc1cccc(CN2CCN(S(=O)(=O)c3ccc(C)cc3)CC2)c1` the value was 1.5%; for `COC(=O)c1cc(Cl)c(NC(=O)COc2cc(C)ccc2C(C)C)cc1OC`, 2.3%; for `COc1cc(/C=C2/SC(=S)N(CC(=O)O)C2=O)cc([N+](=O)[O-])c1O`, -11.3%.
For `CCOC(=O)c1cc(=O)c2c(F)c(F)c(F)c(F)c2o1` the value was -4.1%; for `CN(CP(=O)(O)C(O)c1ccccc1)S(C)(=O)=O` (stereo not given), 7.3%; for `CC(=O)C1(C)CC(C#N)(C#N)C(C#N)=C1N` (stereo not given), 1.1%.
The value for `Cc1ccc(NC(=O)c2sc(N)c(C(=O)OC(C)C)c2C)cc1` was 7.1%.
On to `CC1=NN(c2ccc(Cl)cc2)C(=O)C1`, for which the displacement was -11.1%.
For `CCCOc1ccc2ccc(=O)oc2c1`, the displacement came to 13.4%.
The value for `CCC(C)NC(=O)CN(c1ccc(C)c(Cl)c1)S(C)(=O)=O` (stereo not given) was 19.2%; that for `CC1=NN(c2ccccc2)C(=O)/C1=C\c1ccccc1Cl` was -14.1%; that for `CCOc1cc(OCC)cc(C(=O)Nc2ccc(F)c([N+](=O)[O-])c2)c1` was 1.2%.
The value for `CC(=O)OCc1ccc(-c2ccc([N+](=O)[O-])cc2)o1` was 13.1%; that for `CCOc1ccc(C(=O)COC(=O)c2cccc(I)c2)cc1` was 9.4%; that for `Cc1ccc(S(=O)(=O)NC(=O)C(C)O)cc1` (stereo not given) was 11.3%.
With `COc1ccc(C(=O)CCNc2ccccc2)cc1`, the displacement is 5.6%.
As for `NC(=S)N/N=C/c1c[nH]c2ccccc12`, the displacement is 14.4%.
On to `CCOC(=O)C1CCN(S(=O)(=O)c2ccc(F)cc2)CC1`, for which the displacement is -8%.
The value for `O=C1NC2=Nc3ccccc3NC(c3ccccc3)=C2C(c2ccc(N3CCOCC3)cc2)N1` (stereo not given) was 10.9%.
For `CC1=NN(c2ccc(S(N)(=O)=O)cc2)C(=O)/C1=C\c1ccc(-c2ccc(Cl)c(C(=O)O)c2)o1`, the displacement was found to be 2.3%.
The value for `CN(C)c1ccc(NC(=O)C2CC(=O)N(c3ccc(F)cc3)C2)cc1` (stereo not given) was 3.3%; that for `Cc1ccccc1C(=O)N=Nc1c(O)n(CN(C)C)c2ccc(Br)cc12` was -7.2%; that for `COc1cc(CN2CCN(C3CCCCCC3)CC2)cc(OC)c1O` was -0.4%.
For `COc1ccc(S(=O)(=O)Nc2ccc3ccccc3c2)cc1` the value was 9.7%.

The values are drawn from PubChem BioAssay AID1240 (Sanford-Burnham Center for Chemical Genomics, 2008).
